In PMC11943272 one finds binding data, which are given here for 4 molecules.

Amino acid sequences for entries named in this document (tags omitted).
UniProt P53173: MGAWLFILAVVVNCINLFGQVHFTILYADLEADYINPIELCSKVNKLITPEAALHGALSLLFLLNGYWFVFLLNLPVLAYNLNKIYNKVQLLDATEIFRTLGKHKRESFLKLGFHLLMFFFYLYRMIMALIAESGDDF

Results are given in words; binding and its absence hold for the method and conditions named. In cells and extracts the contact can be indirect. Some binding calls cover weakened binding; strength is not graded here. For some assays here: Sequences can lack the tags named with a protein.

The target of test [1] is T1, Chs7-13xMyc (S. cerevisiae) (UniProt P38843).
T1 sequence: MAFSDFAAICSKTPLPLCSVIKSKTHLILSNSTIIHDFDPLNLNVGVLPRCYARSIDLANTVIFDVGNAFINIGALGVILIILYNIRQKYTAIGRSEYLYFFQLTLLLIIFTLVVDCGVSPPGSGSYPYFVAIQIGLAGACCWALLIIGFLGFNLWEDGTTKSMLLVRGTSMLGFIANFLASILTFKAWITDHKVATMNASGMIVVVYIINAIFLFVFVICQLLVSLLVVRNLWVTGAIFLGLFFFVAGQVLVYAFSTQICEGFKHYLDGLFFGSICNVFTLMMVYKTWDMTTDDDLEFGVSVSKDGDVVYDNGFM
Description: co-IP; Chs7-13xMyc precipitated with anti-Myc 9E10 and Protein A Sepharose from yeast lysates with or without Chs3; 50 mM Tris-HCl pH 8.0, 0.1% Triton, 150 mM NaCl, 4 °C; blots with anti-myc and anti-GFP.

The target in test [2] is Erv14-mCi (S. cerevisiae) (UniProt P53173). Description: co-IP; as a1, lysate of the chs7∆ mutant (no Chs7): Erv14-mCi precipitated with anti-GFP, blot with anti-HA.
The target of test [3] is ^∆126Chs3-3xHA (S. cerevisiae) (UniProt P29465). Nature of the test: cross-linking; DSP added to cleared yeast lysate (10 μg total protein, PBS pH 7.4, 30 min, 22 °C) of the chs7∆ mutant; non-reducing SDS-PAGE, anti-HA blot; DTT reverts the cross-link.
The target in test [4] is Erv14-mCi (S. cerevisiae) (UniProt P53173). Nature of the test: co-IP; Erv14-mCi precipitated with rabbit anti-GFP and Protein A Sepharose from yeast lysates (CHS7 strain; for wild-type Chs3 also the chs7∆ mutant); 50 mM Tris-HCl pH 8.0, 0.1% Triton, 150 mM NaCl, 4 °C; blots with anti-GFP and anti-HA.
Test [5] concerns the target Chs3-3xHA (S. cerevisiae) (UniProt P29465). Nature of the test: cross-linking; DSP added to cleared yeast lysate (10 μg total protein, PBS pH 7.4, 30 min, 22 °C) of the chs7∆ mutant; non-reducing SDS-PAGE, anti-HA blot; DTT reverts the cross-link.
The target of test [6] is T2, Anp1-VN (S. cerevisiae) (UniProt P32629).
T2 sequence: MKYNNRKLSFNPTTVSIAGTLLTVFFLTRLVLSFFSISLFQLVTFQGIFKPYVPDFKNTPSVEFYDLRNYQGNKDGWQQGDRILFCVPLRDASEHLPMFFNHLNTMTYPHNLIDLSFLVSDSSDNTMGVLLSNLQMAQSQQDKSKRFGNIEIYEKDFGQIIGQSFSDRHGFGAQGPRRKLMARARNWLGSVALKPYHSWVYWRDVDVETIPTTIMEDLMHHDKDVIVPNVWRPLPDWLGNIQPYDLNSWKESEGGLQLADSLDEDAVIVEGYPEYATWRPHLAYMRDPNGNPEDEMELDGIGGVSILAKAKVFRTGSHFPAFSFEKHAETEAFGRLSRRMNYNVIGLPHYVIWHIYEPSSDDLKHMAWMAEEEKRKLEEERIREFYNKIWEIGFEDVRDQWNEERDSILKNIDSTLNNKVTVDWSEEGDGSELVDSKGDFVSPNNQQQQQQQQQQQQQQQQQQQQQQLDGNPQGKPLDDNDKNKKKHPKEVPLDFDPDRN
Nature of the test: split reporter; BiFC with VN and VC fragments of VENUS in living yeast cells, seen in the YFP channel.

Test [7] deals with T3, Sec28-VN (S. cerevisiae) (UniProt P40509).
T3 sequence: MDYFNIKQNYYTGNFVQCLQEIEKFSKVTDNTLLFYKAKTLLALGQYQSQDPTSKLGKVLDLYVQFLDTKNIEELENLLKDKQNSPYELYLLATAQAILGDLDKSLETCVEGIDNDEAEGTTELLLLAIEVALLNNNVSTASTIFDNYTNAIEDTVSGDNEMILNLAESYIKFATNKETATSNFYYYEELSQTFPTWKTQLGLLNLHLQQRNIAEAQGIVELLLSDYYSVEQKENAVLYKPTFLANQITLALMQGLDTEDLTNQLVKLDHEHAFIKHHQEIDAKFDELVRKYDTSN
The test is described as above.

B1: Gga2-GFP (protein, UniProt P38817 1-585)
chain: MSHPHSHSIYLSELPVRKPQALGNPLLRKIQRACRMSLAEPDLALNLDIADYINEKQGAAPRDAAIALAKLINNRESHVAIFALSLLDVLVKNCGYPFHLQISRKEFLNELVKRFPGHPPLRYSKIQRLILTAIEEWYQTICKHSSYKNDMGYIRDMHRLLKYKGYAFPKISESDLAVLKPSNQLKTASEIQKEQEIAQAAKLEELIRRGKPEDLREANKLMKIMAGFKEDNAVQAKQAISSELNKLKRKADLLNEMLESPDSQNWDNETTQELHSALKVAQPKFQKIIEEEQEDDALVQDLLKFNDTVNQLLEKFNLLKNGDSNAASQIHPSHVSAPLQQSSGALTNEINLIDFNDLDEAPSQGNNNTNGTGTPAAAETSVNDLLGDLTDLSISNPSTANQASFGLGGDIVLGSSQPAPPVTTTNNSNNTLDLLGLSTPQSPTNSQAVNSSGFDLLMGFNPTTGTTTAPARTLVNQSPNLKIEFEISRESNSVIRIKSFFTNLSSSPISNLVFLLAVPKSMSLKLQPQSSNFMIGNAKDGISQEGTIENAPANPSKALKVKWKVNYSVNSTQAEETAVFTLPNV
Consider B1, for which the binding result in test [1] is listed as “binds”.

B2: ^∆126Chs3-3xHA (domain or fragment, UniProt P29465 127-1165)
chain: EGVAEDEFDKDGDVDNFEESSTQPINKSIKPLRKETNDTLSFWQMYCYFITFWAPAPILAFCGMPKKERQMAWREKVALISVILYIGAIVAFLTFGFTKTVCSSSKLRLKNNEVSTEFVVINGKAYELDTSSRSGIQDVEVDSDTLYGPWSDAGKDASFLFQNVNGNCHNLITPKSNSSIPHDDDNNLAWYFPCKLKNQDGSSKPNFTVENYAGWNCHTSKEDRDAFYGLKSKADVYFTWDGIKNSSRNLIVYNGDVLDLDLLDWLEKDDVDYPVVFDDLKTSNLQGYDLSLVLSNGHERKIARCLSEIIKVGEVDSKTVGCIASDVVLYVSLVFILSVVIIKFIIACYFRWTVARKQGAYIVDNKTMDKHTNDIEDWSNNIQTKAPLKEVDPHLRPKKYSKKSLGHKRASTFDLLKKHSSKMFQFNESVIDLDTSMSSSLQSSGSYRGMTTMTTQNAWKLSNENKAVHSRNPSTLLPTSSMFWNKATSSPVPGSSLIQSLDSTIIHPDIVQQPPLDFMPYGFPLIHTICFVTCYSEDEEGLRTTLDSLSTTDYPNSHKLLMVVCDGLIKGSGNDKTTPEIALGMMDDFVTPPDEVKPYSYVAVASGSKRHNMAKIYAGFYKYDDSTIPPENQQRVPIITIVKCGTPAEQGAAKPGNRGKRDSQIILMSFLEKITFDERMTQLEFQLLKNIWQITGLMADFYETVLMVDADTKVFPDALTHMVAEMVKDPLIMGLCGETKIANKAQSWVTAIQVFEYYISHHQAKAFESVFGSVTCLPGCFSMYRIKSPKGSDGYWVPVLANPDIVERYSDNVTNTLHKKNLLLLGEDRFLSSLMLKTFPKRKQVFVPKAACKTIAPDKFKVLLSQRRRWINSTVHNLFELVLIRDLCGTFCFSMQFVIGIELIGTMVLPLAICFTIYVIIFAIVSKPTPVITLVLLAIILGLPGLIVVITATRWSYLWWMCVYICALPIWNFVLPSYAYWKFDDFSWGDTRTIAGGNKKAQDENEGEFDHSKIKMRTWREFEREDILNRKEESDSFVA
On to B2, for which the binding entry in test [2] is recorded as “binds weakly”; in test [3] it was “no binding”; in test [4] it was “binds”.

B3: Chs3-3xHA (protein, UniProt P29465 1-1165)
chain: MTGLNGDDPDDYYLNLNQDEESLLRSRHSVGSGAPHRQGSLVRPERSRLNNPDNPHFYYAQKTQEQMNHLDVLPSSTGVNPNATRRSGSLRSKGSVRSKFSGRETDSYLLQDMNTTDKKASVKISDEGVAEDEFDKDGDVDNFEESSTQPINKSIKPLRKETNDTLSFWQMYCYFITFWAPAPILAFCGMPKKERQMAWREKVALISVILYIGAIVAFLTFGFTKTVCSSSKLRLKNNEVSTEFVVINGKAYELDTSSRSGIQDVEVDSDTLYGPWSDAGKDASFLFQNVNGNCHNLITPKSNSSIPHDDDNNLAWYFPCKLKNQDGSSKPNFTVENYAGWNCHTSKEDRDAFYGLKSKADVYFTWDGIKNSSRNLIVYNGDVLDLDLLDWLEKDDVDYPVVFDDLKTSNLQGYDLSLVLSNGHERKIARCLSEIIKVGEVDSKTVGCIASDVVLYVSLVFILSVVIIKFIIACYFRWTVARKQGAYIVDNKTMDKHTNDIEDWSNNIQTKAPLKEVDPHLRPKKYSKKSLGHKRASTFDLLKKHSSKMFQFNESVIDLDTSMSSSLQSSGSYRGMTTMTTQNAWKLSNENKAVHSRNPSTLLPTSSMFWNKATSSPVPGSSLIQSLDSTIIHPDIVQQPPLDFMPYGFPLIHTICFVTCYSEDEEGLRTTLDSLSTTDYPNSHKLLMVVCDGLIKGSGNDKTTPEIALGMMDDFVTPPDEVKPYSYVAVASGSKRHNMAKIYAGFYKYDDSTIPPENQQRVPIITIVKCGTPAEQGAAKPGNRGKRDSQIILMSFLEKITFDERMTQLEFQLLKNIWQITGLMADFYETVLMVDADTKVFPDALTHMVAEMVKDPLIMGLCGETKIANKAQSWVTAIQVFEYYISHHQAKAFESVFGSVTCLPGCFSMYRIKSPKGSDGYWVPVLANPDIVERYSDNVTNTLHKKNLLLLGEDRFLSSLMLKTFPKRKQVFVPKAACKTIAPDKFKVLLSQRRRWINSTVHNLFELVLIRDLCGTFCFSMQFVIGIELIGTMVLPLAICFTIYVIIFAIVSKPTPVITLVLLAIILGLPGLIVVITATRWSYLWWMCVYICALPIWNFVLPSYAYWKFDDFSWGDTRTIAGGNKKAQDENEGEFDHSKIKMRTWREFEREDILNRKEESDSFVA
In the case of B3, the binding result in test [5] and in test [4] was “binds” each time.

B4: Chs7-VC (protein, UniProt P38843 1-316)
chain: MAFSDFAAICSKTPLPLCSVIKSKTHLILSNSTIIHDFDPLNLNVGVLPRCYARSIDLANTVIFDVGNAFINIGALGVILIILYNIRQKYTAIGRSEYLYFFQLTLLLIIFTLVVDCGVSPPGSGSYPYFVAIQIGLAGACCWALLIIGFLGFNLWEDGTTKSMLLVRGTSMLGFIANFLASILTFKAWITDHKVATMNASGMIVVVYIINAIFLFVFVICQLLVSLLVVRNLWVTGAIFLGLFFFVAGQVLVYAFSTQICEGFKHYLDGLFFGSICNVFTLMMVYKTWDMTTDDDLEFGVSVSKDGDVVYDNGFM
Regarding B4, the binding result in test [6] is “no binding”; in test [7] it was “binds”.
